The supplement of paper PMC8728848
The list shows a part of the results.

What was measured:
Experiment in all cases: glycan array binding signal (z-score within array); higher = stronger binding
Settings in all cases: glycan notation: IUPAC condensed, linker removed
[1] = target: Neu5Ac(a2-3)Gal6S(b1-4)[Fuc(a1-3)]GlcNAc
Method in brief: (§1)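 Glycan array data came from 3228 arrays in the Consortium for Functional Glycomics database, and only arrays with an available protein sequence were kept. Glycan names were put into IUPAC-condensed notation, and columns mapping to the same glycan were averaged. The binding signal is a within-array Z-score, averaged across arrays of one protein sequence run at different concentrations or buffers and across linkers. A negative Z-score can be read as non-binding.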

[2] = target: Neu5Ac(a2-3)GalNAc
Method in brief: as §1

[3] = target: Neu5Ac(a2-3)GalNAc(b1-4)GlcNAc
Method in brief: as §1

[4] = target: Neu5Ac(a2-3)[GalNAc(b1-4)]Gal(b1-4)Glc
Method in brief: as §1

[5] = target: Neu5Ac(a2-3)[GalNAc(b1-4)]Gal(b1-4)GlcNAc
Method in brief: as §1

[6] = target: Neu5Ac(a2-3)[GalNAc(b1-4)]Gal(b1-4)GlcNAc(b1-3)GalNAc
Method in brief: as §1

[7] = target: Neu5Ac(a2-3)[Neu5Ac(a2-6)]GalNAc
Method in brief: as §1

[8] = target: Neu5Ac(a2-6)Gal
Method in brief: as §1

[9] = target: Neu5Ac(a2-6)Gal(b1-3)GlcNAc(b1-3)[Gal(b1-4)GlcNAc(b1-6)]Gal(b1-4)Glc
Method in brief: as §1

[10] = target: Neu5Ac(a2-6)Gal(b1-4)Glc
Method in brief: as §1

[11] = target: Neu5Ac(a2-6)Gal(b1-4)GlcNAc
Method in brief: as §1

[12] = target: Neu5Ac(a2-6)Gal(b1-4)GlcNAc(b1-2)Man
Method in brief: as §1

[13] = target: Neu5Ac(a2-6)Gal(b1-4)GlcNAc(b1-2)Man(a1-3)Man(b1-4)GlcNAc(b1-4)GlcNAc
Method in brief: as §1

[14] = target: Neu5Ac(a2-6)Gal(b1-4)GlcNAc(b1-2)Man(a1-3)[Gal(b1-4)GlcNAc(b1-2)Man(a1-6)]Man(b1-4)GlcNAc(b1-4)GlcNAc
Method in brief: as §1

[15] = target: Neu5Ac(a2-6)Gal(b1-4)GlcNAc(b1-2)Man(a1-3)[GlcNAc(b1-2)Man(a1-6)]Man(b1-4)GlcNAc(b1-4)GlcNAc
Method in brief: as §1

[16] = target: Neu5Ac(a2-6)Gal(b1-4)GlcNAc(b1-2)Man(a1-3)[GlcNAc(b1-4)][Neu5Ac(a2-6)Gal(b1-4)GlcNAc(b1-2)Man(a1-6)]Man(b1-4)GlcNAc(b1-4)GlcNAc
Method in brief: as §1

[17] = target: Neu5Ac(a2-6)Gal(b1-4)GlcNAc(b1-2)Man(a1-3)[Man(a1-6)]Man(b1-4)GlcNAc(b1-4)GlcNAc
Method in brief: as §1

[18] = target: Neu5Ac(a2-6)Gal(b1-4)GlcNAc(b1-2)Man(a1-3)[Neu5Ac(a2-3)Gal(b1-4)GlcNAc(b1-2)Man(a1-6)]Man(b1-4)GlcNAc(b1-4)GlcNAc
Method in brief: as §1

[19] = target: Neu5Ac(a2-6)Gal(b1-4)GlcNAc(b1-2)Man(a1-3)[Neu5Ac(a2-6)Gal(b1-4)GlcNAc(b1-2)Man(a1-6)]Man(b1-4)GlcNAc(b1-4)GlcNAc
Method in brief: as §1

[20] = target: Neu5Ac(a2-6)Gal(b1-4)GlcNAc(b1-2)Man(a1-3)[Neu5Ac(a2-6)Gal(b1-4)GlcNAc(b1-2)Man(a1-6)]Man(b1-4)GlcNAc(b1-4)[Fuc(a1-6)]GlcNAc
Method in brief: as §1

[21] = target: Neu5Ac(a2-6)Gal(b1-4)GlcNAc(b1-2)Man(a1-6)Man(b1-4)GlcNAc(b1-4)GlcNAc
Method in brief: as §1

[22] = target: Neu5Ac(a2-6)Gal(b1-4)GlcNAc(b1-2)Man(a1-6)[Gal(b1-4)GlcNAc(b1-2)Man(a1-3)]Man(b1-4)GlcNAc(b1-4)GlcNAc
Method in brief: as §1

[23] = target: Neu5Ac(a2-6)Gal(b1-4)GlcNAc(b1-2)Man(a1-6)[GlcNAc(b1-2)Man(a1-3)]Man(b1-4)GlcNAc(b1-4)GlcNAc
Method in brief: as §1

[24] = target: Neu5Ac(a2-6)Gal(b1-4)GlcNAc(b1-2)Man(a1-6)[Man(a1-3)]Man(b1-4)GlcNAc(b1-4)GlcNAc
Method in brief: as §1

[25] = target: Neu5Ac(a2-6)Gal(b1-4)GlcNAc(b1-2)[Neu5Ac(a2-6)Gal(b1-4)GlcNAc(b1-4)]Man(a1-3)[GlcNAc(b1-4)][Neu5Ac(a2-6)Gal(b1-4)GlcNAc(b1-2)[Neu5Ac(a2-6)Gal(b1-4)GlcNAc(b1-6)]Man(a1-6)]Man(b1-4)GlcNAc(b1-4)GlcNAc
Method in brief: as §1

[26] = target: Neu5Ac(a2-6)Gal(b1-4)GlcNAc(b1-2)[Neu5Ac(a2-6)Gal(b1-4)GlcNAc(b1-4)]Man(a1-3)[GlcNAc(b1-4)][Neu5Ac(a2-6)Gal(b1-4)GlcNAc(b1-4)Man(a1-6)]Man(b1-4)GlcNAc(b1-4)GlcNAc
Method in brief: as §1

[27] = target: Neu5Ac(a2-6)Gal(b1-4)GlcNAc(b1-2)[Neu5Ac(a2-6)Gal(b1-4)GlcNAc(b1-6)]Man(a1-6)[Neu5Ac(a2-6)Gal(b1-4)GlcNAc(b1-2)Man(a1-3)][GlcNAc(b1-4)]Man(b1-4)GlcNAc(b1-4)GlcNAc
Method in brief: as §1

[28] = target: Neu5Ac(a2-6)Gal(b1-4)GlcNAc(b1-3)Gal(b1-3)GlcNAc
Method in brief: as §1

[29] = target: Neu5Ac(a2-6)Gal(b1-4)GlcNAc(b1-3)Gal(b1-4)GlcNAc
Method in brief: as §1

[30] = target: Neu5Ac(a2-6)Gal(b1-4)GlcNAc(b1-3)Gal(b1-4)GlcNAc(b1-2)Man(a1-3)[Neu5Ac(a2-6)Gal(b1-4)GlcNAc(b1-3)Gal(b1-4)GlcNAc(b1-2)Man(a1-6)]GalNAc
Method in brief: as §1

[31] = target: Neu5Ac(a2-6)Gal(b1-4)GlcNAc(b1-3)Gal(b1-4)GlcNAc(b1-3)Gal(b1-4)GlcNAc
Method in brief: as §1

[32] = target: Neu5Ac(a2-6)Gal(b1-4)GlcNAc(b1-3)Gal(b1-4)GlcNAc(b1-3)Gal(b1-4)GlcNAc(b1-2)Man(a1-3)[Neu5Ac(a2-6)Gal(b1-4)GlcNAc(b1-3)Gal(b1-4)GlcNAc(b1-3)Gal(b1-4)GlcNAc(b1-2)Man(a1-6)]GalNAc
Method in brief: as §1

[33] = target: Neu5Ac(a2-6)Gal(b1-4)GlcNAc(b1-3)Gal(b1-4)GlcNAc(b1-3)GalNAc
Method in brief: as §1

[34] = target: Neu5Ac(a2-6)Gal(b1-4)GlcNAc(b1-3)Gal(b1-4)GlcNAc(b1-3)[Neu5Ac(a2-6)Gal(b1-4)GlcNAc(b1-3)Gal(b1-4)GlcNAc(b1-6)]GalNAc
Method in brief: as §1

[35] = target: Neu5Ac(a2-6)Gal(b1-4)GlcNAc(b1-3)Gal(b1-4)GlcNAc(b1-6)[Gal(b1-3)]GalNAc
Method in brief: as §1

[36] = target: Neu5Ac(a2-6)Gal(b1-4)GlcNAc(b1-3)Gal(b1-4)[Fuc(a1-3)]GlcNAc(b1-3)Gal(b1-4)[Fuc(a1-3)]GlcNAc
Method in brief: as §1

[37] = target: Neu5Ac(a2-6)Gal(b1-4)GlcNAc(b1-3)GalNAc
Method in brief: as §1

B1: Sebin1 (Coprinopsis cinerea), A8PEE3 (protein)
chain: MTSPFYAHIHNVQDDNTWRFTLIFANRATADEWWRAISEAPANTSIAKSITRVTPQYYTHDVNIWNIWNFFADGNIKSISERFRGRLFIVLENDRGGRGITVIPPVPIVDHVSGNWFYIRSKTAPHLFWYYDERRSSIYASKEKRTRFKISIRNPSSQTPKNAIMINTDDVTIHIKENLYVGVDNNLGHIIPTRAYRTFKFGELESGAIAGFDVVENIEERCSSTFDGASLSISGPDSSSPGEPWELV
[1]
  glycan array binding signal (z-score): -0.3
[2]
  glycan array binding signal (z-score): -0.458
[3]
  glycan array binding signal (z-score): -0.285
[4]
  glycan array binding signal (z-score): -0.266
[5]
  glycan array binding signal (z-score): -0.391
[6]
  glycan array binding signal (z-score): 0.337
[7]
  glycan array binding signal (z-score): -0.368
[8]
  glycan array binding signal (z-score): -0.809
[9]
  glycan array binding signal (z-score): -0.017
[10]
  glycan array binding signal (z-score): -0.396
[11]
  glycan array binding signal (z-score): -0.487
[12]
  glycan array binding signal (z-score): -0.309
[13]
  glycan array binding signal (z-score): -0.4
[14]
  glycan array binding signal (z-score): 0.09
[15]
  glycan array binding signal (z-score): -0.726
[16]
  glycan array binding signal (z-score): -0.053
[17]
  glycan array binding signal (z-score): 0.25
[18]
  glycan array binding signal (z-score): 0.31
[19]
  glycan array binding signal (z-score): -0.194
[20]
  glycan array binding signal (z-score): 0.673
[21]
  glycan array binding signal (z-score): -0.627
[22]
  glycan array binding signal (z-score): -0.07
[23]
  glycan array binding signal (z-score): 0.53
[24]
  glycan array binding signal (z-score): -0.695
[25]
  glycan array binding signal (z-score): 1.54
[26]
  glycan array binding signal (z-score): 0.444
[27]
  glycan array binding signal (z-score): 0.391
[28]
  glycan array binding signal (z-score): -0.663
[29]
  glycan array binding signal (z-score): -0.646
[30]
  glycan array binding signal (z-score): -0.715
[31]
  glycan array binding signal (z-score): -0.443
[32]
  glycan array binding signal (z-score): -0.084
[33]
  glycan array binding signal (z-score): -0.227
[34]
  glycan array binding signal (z-score): 0.083
[35]
  glycan array binding signal (z-score): 0.023
[36]
  glycan array binding signal (z-score): -0.031
[37]
  glycan array binding signal (z-score): -0.313
